# Assay results reported in the BET-seq Pho4 binding data (Le et al. 2018).
# The list shows a part of the results. These are noisy estimates, calculated here from bound and input reads.
# Biological target: T1, Pho4 (S. cerevisiae) (UniProt P07270)
# T1 sequence: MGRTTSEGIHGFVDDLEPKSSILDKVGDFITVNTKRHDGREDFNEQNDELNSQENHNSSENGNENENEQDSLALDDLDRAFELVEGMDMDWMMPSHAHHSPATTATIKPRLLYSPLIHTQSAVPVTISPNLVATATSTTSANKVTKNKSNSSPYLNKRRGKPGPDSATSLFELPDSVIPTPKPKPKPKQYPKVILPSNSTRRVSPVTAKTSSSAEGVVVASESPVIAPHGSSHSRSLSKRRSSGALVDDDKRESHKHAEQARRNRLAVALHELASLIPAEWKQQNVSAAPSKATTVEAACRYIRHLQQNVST
# Experiment: relative binding free energy (BET-seq); higher = weaker binding
# Settings: reference: library average
row,Sequence,relative binding free energy [kcal/mol]
1,GTGGGCACGTGTGCGA,-0.2
2,GGGCTCACGTGTATGG,0.21
3,GCGTGCACGTGGAGGT,-0.05
4,GGGGTCACGTGCCGTG,-0.02
5,CTGTGCACGTGGTCTG,-0.17
6,CTGGTCACGTGTGACG,0.09
7,GCGGACACGTGGAAGT,0.26
8,ATTTGCACGTGGTCGT,-0.08
9,ATGATCACGTGAAGGG,0.23
10,TGTTACACGTGGTTTC,0.18
11,CTTGGCACGTGCGTGG,-0.27
12,TAGTACACGTGCTGAG,0.12
13,TAAGGCACGTGGATTT,0.03
14,AATGGCACGTGGCGTG,-0.26
15,CGGGACACGTGGCAGT,-0.01
16,AGGCGCACGTGGGTGC,-0.24
17,TCGGGCACGTGTTAAA,0.02
18,TTGGGCACGTGGGCGG,-0.17
19,TAGGTCACGTGGTGGA,0.1
20,CGCTGCACGTGGGGAG,-0.14
21,AAGGTCACGTGTCAAT,0.28

row,Sequence,relative binding free energy [kcal/mol]
1,AGTGTCACGTGGTCGC,-0.25
2,GGACTCACGTGTGGGG,0.22
3,TAGTTCACGTGCTCTT,0.28
4,TGTTGCACGTGCAGAT,-0.05
5,TGTAGCACGTGCAGGC,-0.14
6,ATATACACGTGTATGG,-0.01
7,GAGGGCACGTGGTGAA,-0.11
8,ATTAGCACGTGTGGGG,-0.11
9,TAATACACGTGAGAGG,0.36
10,ATTTGCACGTGGGATG,-0.2
11,TGGGGCACGTGGATCA,-0.26
12,TGACACACGTGGGTAG,-0.1
13,GTGTTCACGTGTCGTT,0.19
14,CAAGTCACGTGTTGGG,0.12
15,GGAATCACGTGCGGGA,0.24
16,TAGGTCACGTGGAGGG,0.12
17,CATTTCACGTGATGTG,0.11
18,CTTTTCACGTGGTGGA,0.24
19,GAGATCACGTGATGGA,0.36
20,TTATCCACGTGGTTAT,-0.01
21,TAAGGCACGTGTAAGT,0.08

row,Sequence,relative binding free energy [kcal/mol]
1,TAATACACGTGAGTAT,0.15
2,TAGAGCACGTGGTTCA,-0.08
3,TGCAACACGTGTAGGG,0.04
4,GCTTGCACGTGTCGGG,0.14
5,TTTACCACGTGGTCTG,-0.12
6,TCGTGCACGTGAGGGT,0.12
7,TATATCACGTGATGAG,0.23
8,GGATGCACGTGGCGTA,-0.12
9,TGTGCCACGTGTGGCG,0.02
10,TTTTACACGTGAGGCG,0.23
11,GGTCGCACGTGTAAGT,0.1
12,GAGGGCACGTGGGAAC,-0.13
13,TGATACACGTGTTTGT,0.04
14,AGGTTCACGTGAATTT,0.34
15,TGATTCACGTGGGGGA,0.23
16,TAAGTCACGTGTAGAT,0.31
17,ATAGACACGTGCGGTT,-0.04
18,AATTGCACGTGATGGA,0.12
19,TTTAACACGTGGTTAG,0
20,GTATTCACGTGATGGT,0.44
21,ATGGACACGTGCATGT,-0.03
